{"source": "PubChem BioAssay AID652104", "about": "(National Center for Advancing Translational Sciences (NCATS), 2013)", "note": "Among all 410,000 compounds or so, about 7,200 (1.8%) were called active. Inconclusive results, whose numbers are uncertain, are shown with a selection of clear calls. Calls come from the whole dose curve; as a rule, active = well fitted activation curve with a large enough effect; inconclusive = small, poorly fitted or top-dose-only effect, or another doubt; inactive = no such curve, though single readings can be large or run the other way. Potencies of inconclusive entries are left out as doubtful fits. Potency is the fitted concentration of half-maximal effect; tags give direction and shape of the fitted curve.", "data": [{"test": "qHTS of TDP-43 Inhibitors; note: nearly all actives have a fitted effect of over 50% in size", "settings": "TDP-43 expressing yeast growth rescue, BacTiter-Glo, 24 h; series mostly up to 46.1 µM", "summary_of_the_method": "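Galactose-induced TDP-43 yeast, OD600=0.02, compound pinned; 24 hr, 30 deg C; BacTiter-Glo luminescence for growth. Inhibitors of TDP-43 toxicity read as activators.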", "values": [{"compound": "Cc1ccc(C)c(N2CCN(C(=O)C3CCN(c4nc(-c5ccc(C(C)C)cc5)no4)CC3)CC2)c1", "Potency": "inconclusive [activator, partial curve, poor fit]"}, {"compound": "O=C(NCN1CCc2ccccc2C1)c1ccccc1", "Potency": "inconclusive [activator, single point]"}, {"compound": "O=C(C[C@H]1CC[C@@H]2[C@H](COC[C@H](O)CN2Cc2nccs2)O1)NCc1ccccc1Cl", "Potency": "inconclusive [activator, partial curve, poor fit]"}, {"compound": "COc1ccc(CCNC(=O)c2cc3ccccc3oc2=O)cc1", "Potency": "inactive"}, {"compound": "COCCn1c(C)cc(C(=O)CSc2cc(C)c3ccccc3n2)c1C", "Potency": "inconclusive [activator, single point]"}, {"compound": "COCCCNC(=S)NNC(=S)NCCCOC", "Potency": "inactive"}, {"compound": "C/C(=N\\NC(=S)NCC(C)(C)C)c1cc(F)cc(F)c1O", "Potency": "active: 12.6 µM"}, {"compound": "O=C(Nc1c(F)cccc1F)c1cnc(N2CCN(c3ccccn3)CC2)c2ccccc12", "Potency": "inconclusive [activator, partial curve, poor fit]"}, {"compound": "CCN1CCSc2ccc(C(=O)NC(C)c3ccccc3)cc21", "note": "(stereo unspecified)", "Potency": "inactive"}, {"compound": "CCOCCCNC(=O)/C(C#N)=C/c1cc(OC)c(O)c([N+](=O)[O-])c1", "Potency": "inconclusive [activator, single point]"}, {"compound": "COc1ccc(C2CC(c3ccc(Cl)cc3)=NN2C(C)=O)cc1", "note": "(stereo unspecified)", "Potency": "active: 12.6 µM"}, {"compound": "Oc1ccc(NCc2cccc(OCc3ccccc3)c2)cc1", "Potency": "inconclusive [activator, partial curve]"}, {"compound": "CSc1ccc(C2=CC(=O)C[C@H](c3ccc(Cl)cc3)C2)cc1", "Potency": "inconclusive [activator, single point]"}, {"compound": "COc1ccc(C(=O)NCCC2=CCCCC2)cc1OC", "Potency": "inconclusive [activator, partial curve]"}, {"compound": "COc1ccccc1-c1sc2cc3c(cc2c1C#CCO)OCO3", "Potency": "active: 22.4 µM"}, {"compound": "CCn1ccnc1CNC(=O)c1ccc2oc(CCCc3ccccc3)nc2c1", "Potency": "inconclusive [activator, single point]"}, {"compound": "CCN(CC)S(=O)(=O)c1ccc(N2CCCCC2)c(NC(=O)/C=C/c2ccc(OC)c(OC)c2)c1", "Potency": "inconclusive [activator, partial curve, poor fit]"}, {"compound": "Cc1ccc(NC(=O)c2cnn3c(C(F)F)cc(-c4ccccc4)nc23)c(C)c1", "Potency": "inconclusive [activator, partial curve, poor fit]"}, {"compound": "O=C(COc1ccc([N+](=O)[O-])cc1)Nc1cccnc1", "Potency": "inactive"}, {"compound": "COc1ccc(N2CCN(C(=O)CCc3c(C)nn(-c4ccc(N5CCCC5)nn4)c3C)CC2)cc1", "Potency": "inactive"}, {"compound": "CC(C)C[C@H](NC(=O)c1nc[nH]c1C(=O)N[C@@H](CCCCNC(=O)OC(C)(C)C)C(=O)OC(C)(C)C)C(=O)OC(C)(C)C", "Potency": "inactive"}, {"compound": "CCOC(=O)c1ccc(NC(=O)CCCc2nc(-c3ccccc3Cl)no2)cc1", "Potency": "inconclusive [activator, single point]"}, {"compound": "CCOC(=O)CNC(c1ccccc1)c1cc(Br)ccc1NC(=O)CCN1CCOCC1", "note": "(stereo unspecified)", "Potency": "active: 22.4 µM"}, {"compound": "Fc1ccc(-c2noc3ncnc(N4CCN(c5ccccc5)CC4)c23)cc1", "Potency": "active: 25.1 µM"}, {"compound": "COc1cccc(NC(=S)NNC(=O)Cn2nc(C(F)(F)F)cc2C)c1", "Potency": "inconclusive [activator, partial curve]"}, {"compound": "CCn1c(C(=O)NC(C)c2ccc3c(c2)OCCO3)cc2sccc21", "note": "(stereo unspecified)", "Potency": "inconclusive [activator, partial curve]"}, {"compound": "COC(=O)c1ccccc1NC1OC(=O)c2ccccc21", "note": "(stereo unspecified)", "Potency": "inactive"}, {"compound": "Cc1c(C(=O)NCCC2=CCCCC2)sc2ncnc(N3CCCCC3C)c12", "note": "(stereo unspecified)", "Potency": "inconclusive [activator, single point]"}, {"compound": "COc1ccc(OC)c(NC(=O)c2cc3c(=O)oc4ccccc4c3s2)c1", "Potency": "inactive"}, {"compound": "Cc1cc2c(cc1S(=O)(=O)NCc1ccccc1Cl)OCCN2C", "Potency": "inconclusive [activator, partial curve]"}, {"compound": "COc1ccc(CCNC(=O)CSC(=O)c2ccccc2)cc1OC", "Potency": "inconclusive [activator, partial curve]"}, {"compound": "FC(F)(F)c1ccnc(Sc2n[nH]c(C(F)(F)F)n2)c1", "Potency": "inactive"}, {"compound": "CCN(CC)c1nn2c(=O)c(C(=O)NCCc3ccccc3)cnc2s1", "Potency": "inconclusive [activator, partial curve, poor fit]"}, {"compound": "CC(=O)c1ccc(Sc2ccccc2)cc1", "Potency": "inconclusive [activator, partial curve]"}, {"compound": "Cc1ccc(-c2ccc(C(=O)O)c(C)n2)cc1", "Potency": "inconclusive [activator, partial curve]"}, {"compound": "CCOC(=O)Cc1csc(NC(=O)COc2ccc(OC)cc2)n1", "Potency": "active: 12.6 µM"}, {"compound": "COc1ccc(-c2cc(C(F)F)n3ncc(C(=O)N4CCN(C(=O)c5ccco5)CC4)c3n2)cc1", "Potency": "inactive"}, {"compound": "CC1(C)CC(N2CCN(CCO)CC2)=CC(=S)N1", "Potency": "inconclusive [activator, single point]"}, {"compound": "CC(=O)N1CC(C)Sc2ccc(S(=O)(=O)NCCc3cccc(C)c3)cc21", "note": "(stereo unspecified)", "Potency": "inconclusive [activator, single point]"}, {"compound": "N#C/C(=C\\c1ccncc1)c1nc2ccccc2o1", "Potency": "inactive"}, {"compound": "NNc1nc(Nc2ccccc2)nc(Nc2ccccc2)n1", "Potency": "inactive"}, {"compound": "CCc1cccc(-n2c(C)nc3c(cnn3-c3ccc(Cl)cc3)c2=O)c1", "Potency": "inconclusive [activator, single point]"}, {"compound": "COc1ccc(NC(=O)C2CCN(S(=O)(=O)c3ccc4[nH]c(=O)ccc4c3)CC2)c(OC)c1", "Potency": "inactive"}, {"compound": "CC1=C(C(=O)OCC(C)C)C(c2cc3c(cc2Br)OCO3)NC(=O)N1C", "note": "(stereo unspecified)", "Potency": "inconclusive [activator, single point]"}, {"compound": "Cn1c(=O)n(CC(N)=O)c(=O)c2c1nc1n2CCCN1Cc1ccccc1", "Potency": "inactive"}, {"compound": "Cn1cccc1C(=O)NC(=O)COC(=O)CCNS(=O)(=O)c1cccc(C(F)(F)F)c1", "Potency": "inconclusive [activator, single point]"}]}]}
